Laboratory results as given in PubChem BioAssay (NCI).
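Five compound concentrations were applied to cells in 96-well plates for 48 hours; endpoints were derived by simple linear interpolation of the resulting dose-response curve. At the GI50, growth is halved.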 The source holds more than one record for some entries. Only these are listed. An entry can have further records. For part of these data: A record mostly stands for its own series of concentrations, not given here; some values may only mark the edge of a range. A tag in brackets gives the origin of a value. A, B and so on number the origins entry by entry. For part of these data: The values listed for one entry repeat one measurement in other runs, samples, wells, individuals or studies.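 TGI is the concentration that stops growth completely.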

Experiments:
Assay in all cases: inhibition of tumour cell growth, NCI panel, 48 h
MDA-MB-435 = tested on: MDA-MB-435
MCF7 breast = tested on: MCF7 breast
ACHN renal = tested on: ACHN renal
SR leukemia = tested on: SR leukemia
TK-10 renal = tested on: TK-10 renal
M14 melanoma = tested on: M14 melanoma
HCT-116 colon = tested on: HCT-116 colon
K-562 leukemia = tested on: K-562 leukemia
HS 578T breast = tested on: HS 578T breast
UO-31 renal = tested on: UO-31 renal
MDA-MB-231 breast = tested on: MDA-MB-231 breast
OVCAR-5 ovarian = tested on: OVCAR-5 ovarian
786-0 renal = tested on: 786-0 renal
NCI-H226 lung = tested on: NCI-H226 lung
BT-549 breast = tested on: BT-549 breast
EKVX NSCLC = tested on: EKVX NSCLC
SK-OV-3 ovarian = tested on: SK-OV-3 ovarian
OVCAR-4 ovarian = tested on: OVCAR-4 ovarian
CAKI-1 renal = tested on: CAKI-1 renal
SW-620 colon = tested on: SW-620 colon
SF-539 CNS = tested on: SF-539 CNS
A549 NSCLC = tested on: A549 NSCLC
SF-268 CNS = tested on: SF-268 CNS
COLO 205 colon = tested on: COLO 205 colon
MDA-N = tested on: MDA-N
SNB-19 CNS = tested on: SNB-19 CNS
HL-60(TB) leukemia = tested on: HL-60(TB) leukemia

SMILES: CCC1(O)CC(OC2CC(N(C)C)C(OC3CC4OC5CC(=O)C(C)OC5OC4C(C)O3)C(C)O2)c2c(cc3c(c2O)C(=O)c2c(O)ccc(O)c2C3=O)C1C(=O)OC (stereo not given)
- TGI (MDA-MB-435): 0.176 nM, 108 nM [sample A, 1 test] and 15.9 nM [sample B, mean of 2 tests] and 17.8 nM [sample B, mean of 3 tests]
- GI50 (MCF7 breast): < 0.1 nM, 3.56 nM [sample A, 1 test] and 9.83 nM [sample B, mean of 4 tests] and 3.83 nM [sample B, mean of 5 tests]
- TGI (MCF7 breast): 20.2 nM, 186 nM [sample A, 1 test] and 5.86 µM [sample B, mean of 2 tests] and 110 nM [sample B, mean of 4 tests] and 377 nM [sample B, mean of 5 tests]
- TGI (ACHN renal): 12.6 µM [1 test] and 4.57 nM [mean of 2 tests]
- GI50 (SR leukemia): 4.04 nM [sample A, 1 test] and 0.233 nM [sample B, mean of 3 tests]
- TGI (SR leukemia): 131 nM, 10.4 nM [sample A, 1 test] and 1.7 nM [sample B, mean of 3 tests]
- TGI (TK-10 renal): 27 nM [1 test] and 723 nM [mean of 2 tests]
- TGI (M14 melanoma): 278 nM, 110 nM [sample A] and 93 nM, < 18.8 nM [sample B]
- GI50 (HCT-116 colon): < 0.1 nM, 1.42 nM [sample A, 1 test] and 3.4 nM, 7.5 nM [sample B, mean of 4 tests]
- TGI (K-562 leukemia): 2.44 nM, 104 nM [sample A, 1 test] and 214 nM [sample B, mean of 5 tests] and 83.7 nM [sample B, mean of 7 tests]
- GI50 (HS 578T breast): < 0.1 nM [sample A, 1 test] and 3.53 nM [sample B, mean of 3 tests]
- TGI (HS 578T breast): 0.731 nM [sample A, 1 test] and 136 nM [sample B, 1 test] and 13 nM [sample B, mean of 3 tests]
- GI50 (UO-31 renal): < 0.1 nM [sample A, 1 test] and 2.69 nM, 7.5 nM [sample B, mean of 4 tests]
- TGI (UO-31 renal): < 0.1 nM [sample A, 1 test] and 9.17 nM, 382 nM [sample B, mean of 4 tests]
- GI50 (MDA-MB-231 breast): < 0.1 nM, 36.1 nM [sample A, 1 test] and < 28.2 nM [sample B, mean of 2 tests] and 5.36 nM [sample B, mean of 3 tests]
- TGI (MDA-MB-231 breast): 2.15 nM, 157 nM [sample A, 1 test] and 105 nM [sample B, mean of 3 tests]
- TGI (OVCAR-5 ovarian): 1.32 µM [mean of 2 tests] and 188 nM [mean of 6 tests] and 10.6 nM [mean of 8 tests]
- GI50 (786-0 renal): < 0.1 nM, 3.6 nM [sample A, 1 test] and 0.861 nM [sample B, mean of 2 tests]
- TGI (786-0 renal): 1.63 nM, 317 nM [sample A, 1 test] and 508 nM, 425 nM [sample B, mean of 2 tests]
- GI50 (NCI-H226 lung): < 0.1 nM, 4.75 nM [sample A, 1 test] and 7.77 nM [sample B, mean of 2 tests] and 4.07 nM [sample B, mean of 7 tests]
- TGI (NCI-H226 lung): < 0.1 nM [sample A, 1 test] and 22.6 nM [sample B, 1 test] and 79 nM [sample B, mean of 2 tests] and 34.7 nM [sample B, mean of 7 tests]
- GI50 (BT-549 breast): < 0.1 nM [sample A, 1 test] and 1.61 nM [sample B, mean of 2 tests]
- TGI (BT-549 breast): 1.25 nM [sample A, 1 test] and 34.2 nM [sample B, 1 test] and 10.8 nM [sample B, mean of 2 tests]
- GI50 (EKVX NSCLC): < 0.1 nM, 32.3 nM [sample A, 1 test] and 12.9 nM [sample B, mean of 6 tests] and 12.5 nM [sample B, mean of 7 tests]
- TGI (EKVX NSCLC): 0.475 nM, 909 nM [sample A, 1 test] and 111 nM [sample B, mean of 2 tests] and 67 nM [sample B, mean of 6 tests] and 131 nM [sample B, mean of 7 tests]
- GI50 (SK-OV-3 ovarian): < 0.1 nM [sample A, 1 test] and 9.28 nM [sample B, mean of 6 tests] and 6.43 nM [sample B, mean of 7 tests]
- TGI (SK-OV-3 ovarian): 136 nM, 6.75 µM [sample A, 1 test] and 8.15 µM [sample B, mean of 2 tests] and 1.5 µM [sample B, mean of 6 tests] and 395 nM [sample B, mean of 7 tests]
- GI50 (OVCAR-4 ovarian): < 0.1 nM, 4.6 nM [sample A, 1 test] and 7.56 nM [sample B, mean of 2 tests] and 4.34 nM [sample B, mean of 7 tests]
- TGI (OVCAR-4 ovarian): 1.99 nM, 37.5 nM [sample A, 1 test] and 78.8 nM [sample B, mean of 2 tests] and 107 nM [sample B, mean of 7 tests]
- TGI (CAKI-1 renal): 12.7 µM [mean of 2 tests] and 26.7 nM, 145 nM [mean of 5 tests]
- GI50 (SW-620 colon): < 0.1 nM, 3.32 nM [sample A, 1 test] and 7.5 nM [sample B, mean of 4 tests] and 2 nM [sample B, mean of 8 tests]
- TGI (SW-620 colon): 11.5 nM [sample A, 1 test] and 335 nM [sample B, mean of 4 tests] and 381 nM [sample B, mean of 8 tests]
- GI50 (SF-539 CNS): < 0.1 nM, 18.8 nM [sample A, 1 test] and 16.6 nM, 9.84 nM [sample B, mean of 6 tests]
- TGI (SF-539 CNS): 0.911 nM, 160 nM [sample A, 1 test] and 51.7 nM [sample B, mean of 2 tests] and 80 nM, 22.6 nM [sample B, mean of 6 tests]
- GI50 (A549 NSCLC): < 0.1 nM, 1.73 nM [sample A, 1 test] and 9.63 nM [sample B, mean of 3 tests] and 3.42 nM [sample B, mean of 4 tests]
- TGI (A549 NSCLC): 11.8 nM [sample A, 1 test] and 2.92 µM [sample B, 1 test] and 2.49 µM [sample B, mean of 3 tests]
- GI50 (SF-268 CNS): < 0.1 nM, 14.2 nM [sample A, 1 test] and 22 nM [sample B, mean of 4 tests] and 7.63 nM [sample B, mean of 6 tests]
- TGI (SF-268 CNS): 103 nM, 232 nM [sample A, 1 test] and 429 nM [sample B, mean of 2 tests] and 373 nM [sample B, mean of 4 tests] and 223 nM [sample B, mean of 6 tests]
- GI50 (COLO 205 colon): < 0.1 nM, 1.14 nM [sample A, 1 test] and 0.968 nM [sample B, mean of 6 tests]
- TGI (COLO 205 colon): 0.113 nM, 121 nM [sample A, 1 test] and 9.37 nM [sample B, mean of 6 tests]
- GI50 (MDA-N): < 0.1 nM [sample A, 1 test] and 2.97 nM [sample B, mean of 3 tests]
- TGI (MDA-N): 0.15 nM [sample A, 1 test] and 15.8 nM [sample B, mean of 3 tests]
- GI50 (SNB-19 CNS): < 0.1 nM, 2.69 nM [sample A, 1 test] and < 12.9 nM [sample B, mean of 2 tests] and 12.9 nM [sample B, mean of 4 tests] and 5.5 nM [sample B, mean of 7 tests]
- GI50 (HL-60(TB) leukemia): < 0.1 nM, 4.61 nM [sample A, 1 test] and 8.96 nM [sample B, mean of 4 tests] and 3.64 nM [sample B, mean of 8 tests]
- TGI (HL-60(TB) leukemia): < 0.1 nM, 25.2 nM [sample A, 1 test] and 136 nM [sample B, mean of 4 tests] and 34.5 nM [sample B, mean of 8 tests]
